# Laboratory results published in the supplement of paper PMC8728848.
# The other results are listed elsewhere or left out.
# How the values were obtained:
# Assay in all cases: glycan array binding signal (z-score within array); higher = stronger binding
# Details in all cases: glycan notation: IUPAC condensed, linker removed
# [1] = target: GlcNAc(b1-3)Gal(b1-4)GlcNAc(b1-3)Gal(b1-4)GlcNAc(b1-3)GalNAc
# Summary of the method: (§1)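 Columns mapping to the same glycan were averaged after glycan names were converted to IUPAC-condensed notation. The data come from 3228 arrays in the Consortium for Functional Glycomics database, limited to those with an available protein sequence. Binding is reported as a within-array Z-score averaged across arrays of one protein sequence and across linkers.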
# [2] = target: GlcNAc(b1-3)Gal(b1-4)GlcNAc(b1-3)GalNAc
# Summary of the method: as §1
# [3] = target: GlcNAc(b1-3)Gal(b1-4)GlcNAc(b1-3)[GlcNAc(b1-3)Gal(b1-4)GlcNAc(b1-3)]GalNAc
# Summary of the method: as §1
# [4] = target: GlcNAc(b1-3)Gal(b1-4)GlcNAc(b1-6)[Gal(b1-3)]GalNAc
# Summary of the method: as §1
# [5] = target: GlcNAc(b1-3)Gal(b1-4)GlcNAc(b1-6)[GlcNAc(b1-3)Gal(b1-3)]GalNAc
# Summary of the method: as §1
# [6] = target: GlcNAc(b1-3)Gal(b1-4)GlcNAc(b1-6)[GlcNAc(b1-3)]Gal(b1-4)GlcNAc
# Summary of the method: as §1
# GlcNAc(b1-3)GalNAc = target: GlcNAc(b1-3)GalNAc
# Summary of the method: as §1
# GlcNAc(b1-3)Man = target: GlcNAc(b1-3)Man
# Summary of the method: as §1
# [7] = target: GlcNAc(b1-3)[GlcNAc(b1-4)][GlcNAc(b1-6)]GlcNAc
# Summary of the method: as §1
# [8] = target: GlcNAc(b1-3)[GlcNAc(b1-6)]Gal(b1-4)GlcNAc
# Summary of the method: as §1
# [9] = target: GlcNAc(b1-3)[GlcNAc(b1-6)]GalNAc
# Summary of the method: as §1
# [10] = target: GlcNAc(b1-4)Gal(b1-4)GlcNAc
# Summary of the method: as §1
# GlcNAc(b1-4)GlcNAc = target: GlcNAc(b1-4)GlcNAc
# Summary of the method: as §1
# [11] = target: GlcNAc(b1-4)GlcNAc(b1-4)GlcNAc
# Summary of the method: as §1
# [12] = target: GlcNAc(b1-4)GlcNAc(b1-4)GlcNAc(b1-4)GlcNAc(b1-4)GlcNAc
# Summary of the method: as §1
# [13] = target: GlcNAc(b1-4)GlcNAc(b1-4)GlcNAc(b1-4)GlcNAc(b1-4)GlcNAc(b1-4)GlcNAc
# Summary of the method: as §1
# [14] = target: GlcNAc(b1-4)[GlcNAc(b1-6)]GalNAc
# Summary of the method: as §1
# [15] = target: GlcNAc(b1-6)Gal(b1-4)GlcNAc
# Summary of the method: as §1
# GlcNAc(b1-6)GalNAc = target: GlcNAc(b1-6)GalNAc
# Summary of the method: as §1
# [16] = target: GlcNAc6S(b1-3)Gal(b1-4)GlcNAc
# Summary of the method: as §1
# Kdn(a2-3)Gal(b1-3)GalNAc = target: Kdn(a2-3)Gal(b1-3)GalNAc
# Summary of the method: as §1
# Kdn(a2-3)Gal(b1-3)GlcNAc = target: Kdn(a2-3)Gal(b1-3)GlcNAc
# Summary of the method: as §1
# Kdn(a2-3)Gal(b1-4)Glc = target: Kdn(a2-3)Gal(b1-4)Glc
# Summary of the method: as §1
# Kdn(a2-3)Gal(b1-4)GlcNAc = target: Kdn(a2-3)Gal(b1-4)GlcNAc
# Summary of the method: as §1
# [17] = target: Kdn(a2-3)Gal(b1-4)[Fuc(a1-3)]GlcNAc
# Summary of the method: as §1
# Kdn(a2-6)Gal(b1-4)GlcNAc = target: Kdn(a2-6)Gal(b1-4)GlcNAc
# Summary of the method: as §1
# [18] = target: Man(a1-2)Man(a1-2)Man(a1-3)Man
# Summary of the method: as §1
# [19] = target: Man(a1-2)Man(a1-2)Man(a1-6)[Man(a1-3)]Man
# Summary of the method: as §1
# Man(a1-2)Man(a1-3)Man = target: Man(a1-2)Man(a1-3)Man
# Summary of the method: as §1
# [20] = target: Man(a1-2)Man(a1-3)[Man(a1-2)Man(a1-6)]Man
# Summary of the method: as §1
# [21] = target: Man(a1-2)Man(a1-3)[Man(a1-2)Man(a1-6)]Man(a1-6)[Man(a1-2)Man(a1-2)Man(a1-3)]Man
# Summary of the method: as §1
# [22] = target: Man(a1-2)Man(a1-3)[Man(a1-2)Man(a1-6)]Man(a1-6)[Man(a1-2)Man(a1-2)Man(a1-3)]Man(b1-4)GlcNAc(b1-4)GlcNAc
# Summary of the method: as §1
# [23] = target: Man(a1-2)Man(a1-3)[Man(a1-6)]Man(a1-6)[Man(a1-2)Man(a1-3)]Man(b1-4)GlcNAc(b1-4)GlcNAc
# Summary of the method: as §1
# [24] = target: Man(a1-2)Man(a1-6)[Man(a1-3)]Man(a1-6)[Man(a1-2)Man(a1-2)Man(a1-3)]Man
# Summary of the method: as §1
# [25] = target: Man(a1-2)Man(a1-6)[Man(a1-3)]Man(a1-6)[Man(a1-2)Man(a1-2)Man(a1-3)]Man(b1-4)GlcNAc(b1-4)GlcNAc
# Summary of the method: as §1
# Man(a1-3)[Man(a1-6)]Man = target: Man(a1-3)[Man(a1-6)]Man
# Summary of the method: as §1
# [26] = target: Man(a1-3)[Man(a1-6)]Man(a1-6)[Man(a1-2)Man(a1-3)]Man(b1-4)GlcNAc(b1-4)GlcNAc
# Summary of the method: as §1
binder,measurement,setting,value
Cohesin-hMARCO (Homo sapiens) (protein) LDDLDAVRIKVDTVNAKPGDTVRIPVRFSGIPSKGIANCDFVYSYDPNVLEIIEIEPGDIIVDPNPDKSFDTAVYPDRKIIVFLFAEDSGTGAYAITKDGVFATIVAKVKEGAPNGLSVIKFVEVGGFANNDLVEQKTQFFDGGANVGDTTEPATPTTPVTTPTTTDDLDAASVRIVGSSNRGRAEVYYSGTWGTICDDEWQNSDAIVFCRMLGYSKGRALYKVGAGTGQIWLDNVQCRGTESTLWSCTKNSWGHHDCSHEEDAGVECSVHHHHHH,glycan array binding signal (z-score),[1],-0.395
same,glycan array binding signal (z-score),[2],-0.197
same,glycan array binding signal (z-score),[3],-0.556
same,glycan array binding signal (z-score),[4],-0.507
same,glycan array binding signal (z-score),[5],-0.586
same,glycan array binding signal (z-score),[6],-0.444
same,glycan array binding signal (z-score),GlcNAc(b1-3)GalNAc,-0.3
same,glycan array binding signal (z-score),GlcNAc(b1-3)Man,-0.51
same,glycan array binding signal (z-score),[7],-0.358
same,glycan array binding signal (z-score),[8],-0.168
same,glycan array binding signal (z-score),[9],-0.311
same,glycan array binding signal (z-score),[10],-0.422
same,glycan array binding signal (z-score),GlcNAc(b1-4)GlcNAc,-0.339
same,glycan array binding signal (z-score),[11],-0.456
same,glycan array binding signal (z-score),[12],-0.569
same,glycan array binding signal (z-score),[13],-0.301
same,glycan array binding signal (z-score),[14],0.127
same,glycan array binding signal (z-score),[15],-0.52
same,glycan array binding signal (z-score),GlcNAc(b1-6)GalNAc,0.567
same,glycan array binding signal (z-score),[16],-0.486
same,glycan array binding signal (z-score),Kdn(a2-3)Gal(b1-3)GalNAc,-0.515
same,glycan array binding signal (z-score),Kdn(a2-3)Gal(b1-3)GlcNAc,-0.49
same,glycan array binding signal (z-score),Kdn(a2-3)Gal(b1-4)Glc,-0.554
same,glycan array binding signal (z-score),Kdn(a2-3)Gal(b1-4)GlcNAc,-0.517
same,glycan array binding signal (z-score),[17],-0.323
same,glycan array binding signal (z-score),Kdn(a2-6)Gal(b1-4)GlcNAc,-0.537
same,glycan array binding signal (z-score),[18],3.08
same,glycan array binding signal (z-score),[19],-0.482
same,glycan array binding signal (z-score),Man(a1-2)Man(a1-3)Man,-0.004
same,glycan array binding signal (z-score),[20],-0.394
same,glycan array binding signal (z-score),[21],-0.423
same,glycan array binding signal (z-score),[22],-0.38
same,glycan array binding signal (z-score),[23],-0.232
same,glycan array binding signal (z-score),[24],-0.013
same,glycan array binding signal (z-score),[25],-0.494
same,glycan array binding signal (z-score),Man(a1-3)[Man(a1-6)]Man,-0.423
same,glycan array binding signal (z-score),[26],-0.517
